# Data reported in patent publication US20190367516A1 (Bayer Pharma Aktiengesellschaft, priority 2015, published 2019).
# Target: T1, human M2 receptor (Homo sapiens, UniProt P08172)
# T1 sequence (P08172 1-466): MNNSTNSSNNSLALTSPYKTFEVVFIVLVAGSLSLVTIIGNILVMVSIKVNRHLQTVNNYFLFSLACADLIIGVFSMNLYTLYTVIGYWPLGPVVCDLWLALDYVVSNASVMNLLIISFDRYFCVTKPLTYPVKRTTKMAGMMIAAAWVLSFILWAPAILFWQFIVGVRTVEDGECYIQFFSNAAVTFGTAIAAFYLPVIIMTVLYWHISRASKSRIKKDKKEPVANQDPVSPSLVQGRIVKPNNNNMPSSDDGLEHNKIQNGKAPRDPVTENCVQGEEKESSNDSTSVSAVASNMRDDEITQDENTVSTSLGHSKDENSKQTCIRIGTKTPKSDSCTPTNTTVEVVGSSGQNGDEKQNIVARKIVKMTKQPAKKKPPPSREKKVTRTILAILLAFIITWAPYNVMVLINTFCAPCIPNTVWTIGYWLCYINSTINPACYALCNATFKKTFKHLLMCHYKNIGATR
# Settings: boosting of the acetylcholine effect at an EC20 acetylcholine concentration; for Emax: read-out: Efficiency, M2-GIRK1/4 activation test; for Efficiency: M2-GIRK1/4 activation test
Structure (SMILES),Emax,Efficiency
"C[C@@H]1CN(c2ccc3c(=O)c(C(=O)N[C@@H](C)COC(F)(F)F)cn(-c4c(F)cc(F)cc4F)c3n2)C(=O)N1 [Example 381, 7-[(4R)-4-Methyl-2-oxoimidazolidin-1-yl]-4-oxo-N-[(2S)-1-(trifluoromethoxy)propan-2-yl]-1-(2,4,6-trifluorophenyl)-1,4-dihydro-1,8-naphthyridine-3-carboxamide]",87%,
"CN(C)c1ccc2c(=O)c(C(=O)NC34CC5CC(C3)C(F)(F)C(C5)C4)cn(-c3ccc(F)cc3F)c2n1 [Example 39, 1-(2,4-Difluorophenyl)-N-(4,4-difluorotricyclo[3.3.1.1^3,7]dec-1-yl)-7-(dimethylamino)-4-oxo-1,4-dihydro-1,8-naphthyridine-3-carboxamide]",92.1%,
"CN(C)c1ccc2c(=O)c(C(=O)NC(c3cccc(F)c3)C(F)(F)F)cn(-c3ccc(F)cc3F)c2n1 (racemic) [Example 140, rac-1-(2,4-Difluorophenyl)-7-(dimethylamino)-4-oxo-N-[2,2,2-trifluoro-1-(3-fluorophenyl)ethyl]-1,4-dihydro-1,8-naphthyridine-3-carboxamide]",99%,
"O=C(NC(c1ccccc1Cl)C(F)(F)F)c1cn(-c2ccccc2F)c2nc(N3CCC(O)C3=O)ccc2c1=O (single isomer, unassigned) [Example 290]",,100.0%
"O=C(NC(c1c(F)cccc1F)C(F)(F)F)c1cn(-c2ccc(F)cc2F)c2nc(N3CCCC(O)C3=O)ccc2c1=O (stereo not shown) [Example 247, 1-(2,4-Difluorophenyl)-N-[1-(2,6-difluorophenyl)-2,2,2-trifluoroethyl]-7-[3-hydroxy-2-oxopiperidin-1-yl]-4-oxo-1,4-dihydro-1,8-naphthyridine-3-carboxamide]",93%,
"O=C(NC(c1c(F)cccc1F)C(F)(F)F)c1cn(-c2ccc(F)cc2F)c2nc(N3CCCC(O)C3=O)ccc2c1=O (single isomer, unassigned) [Example 248, 1-(2,4-Difluorophenyl)-N-[1-(2,6-difluorophenyl)-2,2,2-trifluoroethyl]-7-[3-hydroxy-2-oxopiperidin-1-yl]-4-oxo-1,4-dihydro-1,8-naphthyridine-3-carboxamide]",91.7%,
"O=C(NC12CC3CC(F)(CC(F)(C3)C1)C2)c1cn(-c2ccc(F)cc2F)c2nc(NCC(F)(F)F)ccc2c1=O [Example 92, 1-(2,4-Difluorophenyl)-N-(3,5-difluorotricyclo[3.3.1.1^3,7]dec-1-yl)-4-oxo-7-[(2,2,2-trifluoroethyl)amino]-1,4-dihydro-1,8-naphthyridine-3-carboxamide]",95.5%,
"O=C(NCc1c(Cl)cccc1Cl)c1cn(-c2ccc(F)cc2F)c2nc(N3CCCS3(=O)=O)ccc2c1=O [Example 182, N-(2,6-Dichlorobenzyl)-1-(2,4-difluorophenyl)-7-(1,1-dioxido-1,2-thiazolidin-2-yl)-4-oxo-1,4-dihydro-1,8-naphthyridine-3-carboxamide]",94.8%,
"CC[C@@H](NC(=O)c1cn(-c2c(F)cccc2Cl)c2nc(N3C[C@@H](O)CC3=O)ccc2c1=O)C(F)(F)F [Example 307, 1-(2-Chloro-6-fluorophenyl)-7-[(4S)-4-hydroxy-2-oxopyrrolidin-1-yl]-4-oxo-N-[(2R)-1,1,1-trifluorobutan-2-yl]-1,4-dihydro-1,8-naphthyridine-3-carboxamide]",99.5%,
"O=C(Nc1c(Cl)cccc1Cl)c1cn(-c2ccc(F)cc2F)c2nc(N3CC[C@H](O)C3=O)ccc2c1=O [Example 202, N-(2,6-Dichlorophenyl)-1-(2,4-difluorophenyl)-7-[(3S)-3-hydroxy-2-oxopyrrolidin-1-yl]-4-oxo-1,4-dihydro-1,8-naphthyridine-3-carboxamide]",93.3%,
O=C(NC12CC3CC(CC(C3)C1)C2)c1cn(-c2ccc(F)cc2F)c2nc(N3CCOCC3=O)ccc2c1=O [Example 172],87.3%,
"O=C(NC(c1c(F)cccc1F)C(F)(F)F)c1cn(-c2ccc(F)cc2F)c2nc(N3CCCC(O)C3=O)ccc2c1=O (single isomer, unassigned) [Example 249, 1-(2,4-Difluorophenyl)-N-[1-(2,6-difluorophenyl)-2,2,2-trifluoroethyl]-7-[3-hydroxy-2-oxopiperidin-1-yl]-4-oxo-1,4-dihydro-1,8-naphthyridine-3-carboxamide]",,89.0%
"Cc1cccc(C(NC(=O)c2cn(-c3ccc(F)cc3F)c3nc(N(C)C)ccc3c2=O)C(F)(F)F)c1 (racemic) [Example 138, rac-1-(2,4-Difluorophenyl)-7-(dimethylamino)-4-oxo-N-[2,2,2-trifluoro-1-(3-methylphenyl)ethyl]-1,4-dihydro-1,8-naphthyridine-3-carboxamide]",100%,
"O=C(NC(COC(F)(F)F)c1ccccc1)c1cn(-c2ccc(F)cc2F)c2nc(N3C[C@@H](O)CC3=O)ccc2c1=O (mixture of isomers) [Example 233, 1-(2,4-Difluorophenyl)-7-[(4S)-4-hydroxy-2-oxopyrrolidin-1-yl]-4-oxo-N-[1-phenyl-2-(trifluoromethoxy)ethyl]-1,4-dihydro-1,8-naphthyridine-3-carboxamide]",100%,
"O=C(NC(c1ccc(F)cc1)C(F)(F)F)c1cn(-c2ccc(F)cc2F)c2nc(N3C[C@@H](O)CC3=O)ccc2c1=O (mixture of isomers) [Example 273, 1-(2,4-Difluorophenyl)-7-[(4S)-4-hydroxy-2-oxopyrrolidin-1-yl]-4-oxo-N-[2,2,2-trifluoro-1-(4-fluorophenyl)ethyl]-1,4-dihydro-1,8-naphthyridine-3-carboxamide]",100%,
"CC[C@H](NC(=O)c1cn(-c2c(F)cccc2Cl)c2nc(N3C[C@@H](O)[C@H](O)C3)ccc2c1=O)C(F)(F)F [Example 346, 1-(2-Chloro-6-fluorophenyl)-7-[(3R,4R)-3,4-dihydroxypyrrolidin-1-yl]-4-oxo-N-[(2S)-1,1-trifluorobutan-2-yl]-1,4-dihydro-1,8-naphthyridine-3-carboxamide]",96%,
"CC(C)CC(NC(=O)c1cn(-c2ccc(F)cc2F)c2nc(NCC(F)(F)F)ccc2c1=O)C(F)(F)F (racemic) [Example 95, rac-1-(2,4-Difluorophenyl)-4-oxo-7-[(2,2,2-trifluoroethyl)amino]-N-[1,1,1-trifluoro-4-methylpentan-2-yl]-1,4-dihydro-1,8-naphthyridine-3-carboxamide]",90%,

# Now from value to molecule:
Emax,Efficiency,Structure (SMILES)
100%,,"CCC(NC(=O)c1cn(-c2ccc(F)cc2F)c2nc(N3CCN(C(=O)OC)CC3)ccc2c1=O)C(F)(F)F (single isomer, unassigned; enantiomer a) [Example 24, ent-Methyl 4-{8-(2,4-difluorophenyl)-5-oxo-6-[(1,1,1-trifluorobutan-2-yl)carbamoyl]-5,8-dihydro-1,8-naphthyridin-2-yl}piperazine-1-carboxylate (Enantiomer A)]"
100%,,"CC[C@@H](NC(=O)c1cn(-c2ccc(F)cc2F)c2nc(N3CC(C)(OC)C3)ccc2c1=O)C(F)(F)F [Example 328, 1-(2,4-Difluorophenyl)-7-(3-methoxy-3-methyazetidin-1-yl)-4-oxo-N-[(2R)-1,1,1-trifluorobutan-2-yl]-1,4-dihydro-1,8-naphthyridine-3-carboxamide]"
94%,,"CC(C)C[C@@H](NC(=O)c1cn(-c2ccc(F)cc2F)c2nc(N(C)C)ccc2c1=O)C(F)(F)F [Example 133, 1-(2,4-Difluorophenyl)-7-(dimethylamino)-4-oxo-N-[(2R)-1,1,1-trifluoro-4-methylpentan-2-yl]-1,4-dihydro-1,8-naphthyridine-3-carboxamide]"
,100.0%,"CCC(NC(=O)c1cn(-c2ccc(F)cc2F)c2nc(N3CCN(C(=O)OC)CC3)ccc2c1=O)C(F)(F)F (single isomer, unassigned; enantiomer b) [Example 25, ent-Methyl 4-{8-(2,4-difluorophenyl)-5-oxo-6-[(1,1,1-trifluorobutan-2-yl)carbamoyl]-5,8-dihydro-1,8-naphthyridin-2-yl}piperazine-1-carboxylate (Enantiomer B)]"
95.5%,,"CC[C@@H](NC(=O)c1cn(-c2ccc(F)cc2F)c2nc(N3CCCN(CC)C3=O)ccc2c1=O)C(F)(F)F [Example 344, 1-(2,4-Difluorophenyl)-7-(3-ethyl-2-oxotetrahydropyrimidin-1(2H)-yl)-4-oxo-N-[(2R)-1,1-trifluorobutan-2-yl]-1,4-dihydro-1,8-naphthyridine-3-carboxamide]"
96%,,"CC[C@@H](NC(=O)c1cn(-c2ccc(F)cc2F)c2nc(N3CCC(C)(OC)C3=O)ccc2c1=O)C(F)(F)F (single isomer, unassigned) [Example 198]"
90.5%,,"CC[C@@H](NC(=O)c1cn(-c2ccc(F)cc2F)c2nc(N3CC[C@H](F)C3)ccc2c1=O)C(F)(F)F [Example 189, 1-(2,4-Difluorophenyl)-7-[(3S)-3-fluoropyrrolidin-1-yl]-4-oxo-N-[(2R)-1,1,1-trifluorobutan-2-yl]-1,4-dihydro-1,8-naphthyridine-3-carboxamide]"
99.7%,,"CC[C@@H](NC(=O)c1cn(-c2ccc(F)cc2F)c2nc(N3CCC(O)(O)C(F)C3)ccc2c1=O)C(F)(F)F (mixture of isomers) [Example 34, 1-(2,4-Difluorophenyl)-7-[3-fluoro-4,4-dihydroxypiperidin-1-yl]-4-oxo-N-[(2R)-1,1,1-trifluorobutan-2-yl]-1,4-dihydro-1,8-naphthyridine-3-carboxamide (diastereomer mixture)]"
